# From paper PMC12136788
# This is one part of the list.
# B1: chr9:35750248:35750349:+|CDS|ENSG00000107185|msi1|FALSE|unique (ssRNA)
# RNA: GGGAGUUCUACAGUCCGACGAUCGGCCCUGGCCUGGGCCAGUGCCCAAAUCCACUGCCAGUUCCAUGCCAGUGAGAGUCGAGUAGCACUGCCUCCUCCUGACUCUAGUCAGCCAGAUGUCCAGCCCGACAGCCAGACUGUCUUCAACAGAGGAUUGAGCAUCA
# B2: chr5:136977529:136977630:-|3pUTR|ENSG00000152377|msi1|FALSE|unique (ssRNA)
# RNA: GGGAGUUCUACAGUCCGACGAUCACAAGCCAUCUCUUUCAUUUCUGCUUGAAGCCCCUUGGCUGCAGCAAUCCUGUCUGCCAUAGGUUUCUUCCUUCCUUACCUACUCAAGGGCUUUUUCUAAGGCAUGCACACAUAUCUCCUCAACAGAGGAUUGAGCAUCA
# B3: chr1:109062613:109062715:-|3pUTR|ENSG00000197780|unk|total|mutant (ssRNA)
# RNA: GGGAGUUCUACAGUCCGACGAUCAGUUCUGAAUACACAGGUUUUGUGUGUAUUUACUCUAUGUAUUAAAUUAUUAUUGCCCUCCGUUUAAAGUAAGGAUUACAAUUGGAUUUAAGCCGAUCACUGAAUGUUAUUGUUUAUGAACAACAGAGGAUUGAGCAUCA
# B4: chr1:156668797:156668898:-|3pUTR|ENSG00000132688|msi1|total|mutant (ssRNA)
# RNA: GGGAGUUCUACAGUCCGACGAUCUGACGGCACUCCCAUGUGCUGACUCCCCCCAUCCCUGCCACGCUGUGGCCCUGCCUGGCCCGUCCCUGCCUGAAUAAAGUAAUGCCUCCGCUUCAAAGUCUGGACUCUUCUUUCCCCCACCAACAGAGGAUUGAGCAUCA
# B5: chr3:98585547:98585662:-|CDS|ENSG00000080819|unk|FALSE|unique (ssRNA)
# RNA: GGGAGUUCUACAGUCCGACGAUCUCCAUUUGAUCCCUGGUUUGGCGCCGCUGUGUUUUCCAGGUGUGAUGAUUACUUCUUUAUAGCCCAUCGUGGAGAACGGCGGGGCAUUGGUGGUAUCUUUUUUGAUGAUCUUGACUCUCCCAACAGAGGAUUGAGCAUCA
# B6: chr18:47840682:47840783:-|3pUTR|ENSG00000175387|unk|total|mutant (ssRNA)
# RNA: GGGAGUUCUACAGUCCGACGAUCAUACCGUUUUUCCAAAGGUAUUUUACAAUAUUUCAACAGCAGACCUUCUGCUCUUCGAGCCGUUUGAUUUGGUUCCGUAACCAGAUUGCAUUAUGAAAUGGGCCUUUUGUAAAUGUAAUUCAACAGAGGAUUGAGCAUCA
# B7: chr1:62864655:62864756:+|3pUTR|ENSG00000125703|unk|total|mutant (ssRNA)
# RNA: GGGAGUUCUACAGUCCGACGAUCUUUGUUAACUGUGAUAUGCAUACACUUAUAUAAGCAGAAUUAUGAGUUAAAGUAAUACUCCGCAAUAUGAUUUUAUAAUGGCUCCUCAUUAUGCUUGCUGUUGAACCUUUUAUGAGGAGUCAACAGAGGAUUGAGCAUCA
# B8: chr16:67657985:67658362:-|CDS|ENSG00000102977|control|control|control (ssRNA)
# RNA: GGGAGUUCUACAGUCCGACGAUCUCCACACCAGGCUCUUGUGACCAGGCCCCAGAAACCUAGCCUGGAGUUCAAGGAGUUUGUAGGGUUGCCCUGCAAGAAUCGGCCGCCUUUUCCCAGGACCGGAGCUACCAGGGGAGCCCACAACAGAGGAUUGAGCAUCA
# B9: chr9:123379744:123379845:-|3pUTR|ENSG00000119522|msi1|FALSE|unique (ssRNA)
# RNA: GGGAGUUCUACAGUCCGACGAUCGUGUUUCAGCAUAGAUUCCAGUUUCGCACCCUGGGCAGACCCCCAGGCCCCAUCCGGGAUAGGGCAGAGGAGGUGCUGGCGGCCCCAGGGAAGGAGGGUGUGUACCCCAAGGCCCCCUGGCAACAGAGGAUUGAGCAUCA
# B10: chr8:41263332:41263433:-|3pUTR|ENSG00000104332|msi1|FALSE|unique (ssRNA)
# RNA: GGGAGUUCUACAGUCCGACGAUCCAGCAUGCCCGCCUAGUUACCUACCGGAGAGUUAUCCUGAUAAAUUAACCUCUCACAGUUAGUGAUCCUGUCCUUUUAACACCUUUUUUGUGGGGUUCUCUCUGACCUUUCAUCGUAAAGCAACAGAGGAUUGAGCAUCA
# B11: chr1:21217244:21217432:-|3pUTR|ENSG00000117298|msi1|FALSE|unique (ssRNA)
# RNA: GGGAGUUCUACAGUCCGACGAUCCCGCUCCAGAGCUUUAAGGAAAAUGAAGUGAGACCCCUCCCCUUAGGCCUGGGGAGCCAUAGGGCUGGCUUCUCUGUGGGUGCGUGGACGUGGGGUUGGGAGCUGGGAAUCUAUUUUUUGCAACAGAGGAUUGAGCAUCA
# B12: chr11:13729208:13729309:+|3pUTR|ENSG00000197601|unk|total|mutant (ssRNA)
# RNA: GGGAGUUCUACAGUCCGACGAUCAAAGUUGGCCGAUAUUUGAUUCUUCAUUUUUUGUUUUUUUCAUCCGUUGAAGUGGGUUUCCGUUUUGUUUAAAAUUAUAACCAGCGUAUUUUCACAUCAUUCUGUAAGUUAAAUGAUAUCCAACAGAGGAUUGAGCAUCA
# B13: chr17:29262523:29262623:-|3pUTR|ENSG00000108256|msi1_unk|total|mutant (ssRNA)
# RNA: GGGAGUUCUACAGUCCGACGAUCACUUUGACUGAUAUUGUAAUUUUCAAAUGUAUAAUAUGUUUACAGAUGUGCCCUGCAUUCCGUCUGCCUUGUUCCUAUUUUGAUUUUUGUUGAGUCUCCUGCCUGCUUGCCAAAAGCCCGCAACAGAGGAUUGAGCAUCA
# B14: chr1:10947665:10948844:-|CDS|ENSG00000175262|control|control|control (ssRNA)
# RNA: GGGAGUUCUACAGUCCGACGAUCCCCCAGGGAGGGGGCCAGGGGGCACAUGGACCUUUCAUCCUCAGAACCAAGCCAGGACAUAGAGGGGCCGGGACUCUCCAUCCUGCCAGCGAGGGAUGCCACAUUCUCCACCCCAAGUGUCAACAGAGGAUUGAGCAUCA
# B15: chr2:128192036:128192329:+|3pUTR|ENSG00000136731|msi1|total|mutant (ssRNA)
# RNA: GGGAGUUCUACAGUCCGACGAUCAUGUCCUGGUGUCACUCAUUGCCUCUUAUCUGUCGCCAUUCUAAUAUAAGUCAGCUUAACCGUUGACUCUGAAUAAUGCAAAACCCAGCUUGCUUCCAGAAUGGCCCCGGACCCUCCUCCCAACAGAGGAUUGAGCAUCA
# B16: chr1:16057768:16058436:-|three_prime_utr|ENSG00000185519|control|control|control (ssRNA)
# RNA: GGGAGUUCUACAGUCCGACGAUCGCAGCCCAGGCAUAUCUGGACCCCGGGGUCCAGGGCAGGGCAUCCCUUGACCCCUCGGGUAGGCACAGGGUAGGUGCGGCAGGGAUGGGGCCAGUGCUCAUGGUGGCCUCUCUGUGCCUCCAACAGAGGAUUGAGCAUCA
# B17: chr3:94057921:94060947:-|three_prime_utr|ENSG00000178700|control|control|control (ssRNA)
# RNA: GGGAGUUCUACAGUCCGACGAUCAGGUGUUUUCUGGUUUAAGUUGUUCCCCCUCCCUCUGAGAAAAGUAUGCAUUUUUACAUUAGAAAAGGGACUUUUGUUGACUUCAGAUCUAUGGAUAAUUAUUUCUAAGCAACGUGUUUUCAACAGAGGAUUGAGCAUCA
# B18: ENSG00000198589:be:win_8801|3pUTR|ENSG00000198589|bound_else_gene|NA|bound_elsewhere_windowed (ssRNA)
# RNA: GGGAGUUCUACAGUCCGACGAUCAAGUCUAUUUUCACCAAUUAUGGAAACAUACAGUGGAGCAAGUAAACCACUUAUUCCAGCUAUAAUAUUAUGAAGAACAUUUCCCAUGCAUCUACAAGCUUGAGAAAUAGGAUUUUCACACAACAGAGGAUUGAGCAUCA
# B19: chr1:31434308:31434366:+|3pUTR|ENSG00000168528|msi1_unk|total|mutant (ssRNA)
# RNA: GGGAGUUCUACAGUCCGACGAUCGCCAGGCUGAGCCCCCACCCCUGCCCCAGCUCCAGGACCUGCCCCUGAGCCGGGCCUUCCCGUCGCCGUGCCUUCAGGGUCCGAGGAGCAUCAGGCUCCUGCAGAGCCCCAUCCCCCCGCCAACAGAGGAUUGAGCAUCA
# B20: chr20:3582170:3582271:+|CDS|ENSG00000088812|msi1|total|mutant (ssRNA)
# RNA: GGGAGUUCUACAGUCCGACGAUCGGCCUUCGGAAGAUCAAUGUGUCCUACUGGUGCUGGGAAGAUAUGUCCCCAUUUACAAACCGUUUACUACAGUGGAUGCCGUCUGAGCCCAGUGAUGCUGGAUUCUGUGGAAUUUUAUCACAACAGAGGAUUGAGCAUCA
# B21: chr7:20413385:20413486:+|3pUTR|ENSG00000105855|msi1|FALSE|unique (ssRNA)
# RNA: GGGAGUUCUACAGUCCGACGAUCACUGAAGAUAUCUUUAUGCAAGACAAGAGUCAGCCAUCAGACACUGAAAUAUAUUAUGAUAGAUUAUGAAGAAUUUUCUCUGUAGAAUUAUAUUCUUCCUGGAACCUGGUAGAGUAGAUUCAACAGAGGAUUGAGCAUCA
# B22: chr12:65247554:65247656:+|3pUTR|ENSG00000174106|unk|total|mutant (ssRNA)
# RNA: GGGAGUUCUACAGUCCGACGAUCCAGUAUUUAAUUUGUUUCAGUAAACUUACUUUAUUACUGUUUAUGAUUUCAGAUAAAAACCGUUGCUGAGUAAAUUUUACUUGUAAUCUACAAUUGGCUUUUUAAAAAUAACCUGUUGAUCAACAGAGGAUUGAGCAUCA
# Molecular target: MSI1 full-length (mouse, UniProt Q61474 1-362)
# UniProt Q61474, sequence (Q61474 whole entry): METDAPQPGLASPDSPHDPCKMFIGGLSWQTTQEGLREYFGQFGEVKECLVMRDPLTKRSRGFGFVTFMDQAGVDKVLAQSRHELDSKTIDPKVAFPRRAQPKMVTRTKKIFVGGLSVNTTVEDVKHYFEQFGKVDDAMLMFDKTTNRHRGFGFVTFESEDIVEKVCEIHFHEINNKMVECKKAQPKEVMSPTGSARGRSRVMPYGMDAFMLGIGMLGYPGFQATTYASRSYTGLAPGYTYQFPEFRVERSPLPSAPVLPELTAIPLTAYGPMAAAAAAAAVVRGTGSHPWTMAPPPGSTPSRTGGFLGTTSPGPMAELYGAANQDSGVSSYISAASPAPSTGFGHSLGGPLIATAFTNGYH
# Experiment: nsRBNS (natural sequence RNA bind-n-seq); RBNS binding buffer (assumed for nsRBNS): 25 mM Tris pH 7.5, 150 mM KCl, 3 mM MgCl2, 0.01% Triton X-100, 500 ug/ml BSA, 20 U/ml SUPERase-In, 4 C; UNK is unkempt and MSI1 is Musashi-1; names of the RNAs are library labels; protein concentration not given here; high values mean tight binding
row,Binder,binding signal [enrichment R]
1,B1,0.366
2,B2,0.506
3,B3,1.35
4,B4,1.06
5,B5,0.392
6,B6,0.34
7,B7,0.572
8,B8,0.41
9,B9,0.381
10,B10,1.17
11,B11,0.48
12,B12,0.59
13,B13,0.444
14,B14,0.58
15,B15,0.445
16,B16,0.357
17,B17,0.983
18,B18,0.447
19,B19,0.921
20,B20,0.399
21,B21,11.6
22,B22,0.657
